{"source": "patent US20240358672A1", "about": "“APPLICATION OF GENISTEIN AND ITS PHOSPHATE ESTER DERIVATIVE AND PHARMACEUTICAL COMPOSITION COMPRISING THE SAME” (National Taiwan University, priority 2023, published 2024)", "tested_on": "hiPSC-ECs", "test": "TNF-α ELISA of hiPSC-EC culture medium", "type": "cell-based, human", "conditions": "0.5 or 5 μM Δ^9-THC, 48 hours", "data": [{"smiles": "CCCCCc1cc(O)c2c(c1)OC(C)(C)[C@@H]1CCC(C)=C[C@@H]21", "note": "[Δ^9-THC, Δ^9-tetrahydrocannabinol]", "values": [{"measurement": "TNF-α concentration in the cell culture medium", "value": "increased"}]}]}
